Laboratory results from PubChem BioAssay AID2202238 (Ras Initiative Chemistry Research Team, Frederick National …, 2025).
The other results are listed elsewhere or left out. Shown are side measurements of this screen, not its main read-out; they come without a call.

Biological target: GTPase KRas (Homo sapiens) (UniProt P01116)
Experiment: Fragment capture on engineered cysteines, share of protein labelled (AID 2202238)
Set-up: protein at 5 µM with 500 µM competing thiol for 1.5 h
Details: KRAS G12D cysteine mutants, disulfide tethering, MALDI-TOF labeling, stronger effect = higher value, fragment at 500 µM
[1] = measured here: G60C mutant labeling
[2] = measured here: G75C mutant labeling
[3] = measured here: H94C mutant labeling
[4] = measured here: I36C mutant labeling
[5] = measured here: L120C mutant labeling
[6] = measured here: M67C mutant labeling
[7] = measured here: M72C mutant labeling
[8] = measured here: N26C mutant labeling
[9] = measured here: N86C mutant labeling
[10] = measured here: P121C mutant labeling
[11] = measured here: S122C mutant labeling
[12] = measured here: S136C mutant labeling

Sequence of UniProt P01116 (P01116 whole entry, looked up, the tested form may be a part): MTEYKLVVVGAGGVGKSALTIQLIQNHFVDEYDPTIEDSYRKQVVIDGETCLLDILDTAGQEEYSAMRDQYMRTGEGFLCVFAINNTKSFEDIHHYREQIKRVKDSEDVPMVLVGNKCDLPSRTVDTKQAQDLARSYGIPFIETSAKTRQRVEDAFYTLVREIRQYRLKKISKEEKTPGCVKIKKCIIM

| Structure (SMILES) | percent labeling [1] [%] | percent labeling [2] [%] | percent labeling [3] [%] | percent labeling [4] [%] | percent labeling [5] [%] | percent labeling [6] [%] | percent labeling [7] [%] | percent labeling [8] [%] | percent labeling [9] [%] | percent labeling [10] [%] | percent labeling [11] [%] | percent labeling [12] [%] |
| --- | --- | --- | --- | --- | --- | --- | --- | --- | --- | --- | --- | --- |
| O=C(NCCS)C1(Cc2cccc(Cl)c2)CCCCC1 | 30.9 | 14.2 | 15.3 | 10.5 | 12.7 | 11.4 | 31.5 | 27.5 | 8.2 | 13.6 | 8.3 | 20.9 |
| COCCn1cc(C#N)c(NC(=O)CCS)n1 |  | 9.5 | 22.1 | 36.2 | 38 | 26.6 | 17.7 |  | 27.7 | 32.9 | 33.2 | 42.6 |
| Cc1nn(-c2ccccc2)c2ncc(C(=O)NCCS)cc12 | 21.2 | 9.5 | 14.4 | 10.4 | 12.2 | 10.7 | 20.1 | 25.1 | 11.4 | 11.1 | 7 | 17.6 |
| O=C(CCS)N1CCCc2c(F)cc(F)cc21 |  | 26.7 | 41.2 | 21.9 | 15.3 | 21.6 | 62.6 |  | 23 | 24.7 | 18 | 41.1 |
| O=C(CCS)NC1COc2ccccc2C1O (stereo not drawn) |  | 12 | 25.9 | 36.7 | 28.3 | 33.9 | 20.4 |  | 17.4 | 29.5 | 33.6 | 51.3 |
| O=C(NCCS)c1ccc2c(c1)CCCN2C(=O)c1ccccc1 | 22.1 | 9.1 | 12.5 | 12.7 | 10 | 13.8 | 20.3 | 29.2 | 6.1 | 8.7 | 6.2 | 23.9 |
| Cc1c(C(=O)NCCS)c(=O)oc2ccc(O)cc12 | 42 | 15.8 | 26.8 | 30.4 | 39.1 | 39 | 45.1 | 50.4 | 40.6 | 51.1 | 29.9 | 50.2 |
| CC(C)(NC(=O)c1ccccc1)C(=O)NCCS | 21.7 | 6.5 | 26.5 | 16.6 | 51.5 | 24 | 18.8 | 27.7 | 21.1 | 27 | 25.3 | 42.6 |
| CC(C)(C(=O)NCCS)c1csc(-c2cccs2)n1 | 37 | 20.3 | 27.6 | 15.8 | 26.1 | 21.3 | 37.6 | 33.4 | 15.7 | 19.6 | 15.9 | 25.7 |
| O=C(NCCS)c1cc2c(Cl)cncc2s1 | 22.1 | 13 | 14.6 | 11 | 13.4 | 12.3 | 40.2 | 29.4 | 10.5 | 11.2 | 8.9 | 19.5 |
| O=C(CCS)Nc1ccc(OCc2cccc(F)c2)c(F)c1 |  | 7 | 12.4 | 35.5 | 7 | 30.7 | 34.6 |  | 9.8 | 7.8 | 0 | 21.8 |
| O=C(NCCS)c1cnn(Cc2ccccc2Cl)c1 | 40.8 | 23.8 | 21.1 | 20.5 | 31.1 | 58.3 | 50.6 | 34.5 | 19.7 | 19.8 | 18.6 | 35 |
| O=C(NCCS)C1CCN(S(=O)(=O)c2cccnc2)CC1 | 35.3 | 19.9 | 33.6 | 32.6 | 31.8 | 36.9 | 18.3 | 43.1 | 28.4 | 31.7 | 33.9 | 39.7 |
| O=C(CCS)NCc1cc(-c2ccc3c(c2)OCCO3)on1 |  | 4.8 | 14 | 21.4 | 10.4 | 15.3 | 55.5 |  | 7.9 | 12.2 | 10.1 | 18.8 |
| O=C(NCCS)c1cc(Br)c2nccnc2c1 | 46.2 | 23.7 | 25.8 | 18.8 | 21.2 | 23.6 | 61.5 | 35.9 | 17.9 | 17.9 | 14.3 | 28.7 |
| COc1ccc2c(c1)C(CCNC(=O)CCS)=CC2 |  | 12.4 | 20.3 | 23.4 | 24.9 | 21.5 | 24.4 |  | 19.9 | 12.1 | 17.6 | 22.3 |
| O=C(NCCS)c1ccc(Cn2cccn2)cc1 | 29.2 | 17.3 | 31.7 | 35.9 | 41.2 | 33.1 | 35.7 | 39.3 | 28.9 | 29.7 | 14.8 | 53.7 |
| O=C(CCS)Nc1ccc(-n2cncn2)nc1 |  | 24.5 | 18.6 | 32 | 18.5 | 23.1 | 33.5 |  | 17.5 | 28.1 | 25.2 | 32.2 |
| Cc1cc2scc(CC(=O)NCCS)c2s1 | 34.7 | 16 | 19.7 | 12.5 | 22.8 | 13.6 | 38.7 | 26.8 | 14.8 | 16.1 | 14.1 | 22.7 |
| COC(=O)c1ccc2[nH]cc(C3CCN(C(=O)CCS)CC3)c2c1 |  | 5.6 | 12.3 | 8 | 6.9 | 12.3 | 21 |  | 6.5 | 12.3 | 6.2 | 22 |
| O=C(CCS)NCc1cnn(-c2ccccc2)c1 |  | 11.2 | 16.9 | 27 | 17.7 | 38.2 | 31.7 |  | 8.1 | 27.8 | 19.1 | 36.2 |
| O=C(NCCS)c1csc(CCc2ccccc2)n1 | 22.5 | 10.8 | 18.3 | 10.6 | 18.1 | 17.8 | 34.8 | 28.9 | 14.3 | 15.8 | 12.5 | 21.2 |
| CC(C(=O)NCCS)n1ccnc1-c1ccccc1 (stereo not drawn) | 36.4 | 14.4 | 33.3 | 26.8 | 30.5 | 45.9 | 24.7 | 36.5 | 28.4 | 29.4 | 31.2 | 46 |
